Measurements as given in PMC9691689, “Uptake mechanism of iron-phytosiderophore from the soil based on the structure of yellow stripe transporter” (Nature Communications, 2022).

Biological target: the molecule itself
Assay: SEC; Superdex 200 10/300 GL; 20 mM HEPES pH 7.5, 150 mM NaCl, 0.001% LMNG, 0.0002% CHS; protein purified with CHS throughout

B1: HvYS1 K673C (natural protein)
chain: not shown
notes: Yellow stripe 1 (YS1) iron-phytosiderophore transporter of barley (Hordeum vulgare L.) with a cysteine at Lys673 in the middle of strand S1; source: Sf9 insect cells (baculovirus), purified in the same manner as the wild type, with or without CHS
- stoichiometry N: 2
